Laboratory results reported in PMC4336329 (PLoS ONE, 2015).
Among all 310,000 compounds or so, about 14,000 (4.5%) showed an effect of 50% or more. Effects have a minus sign here. The list shows a part of the results.

Each molecule was assayed against human ether-à-go-go-related gene (hERG) potassium channel (human, UniProt Q12809) (assay: primary screen, population patch clamp on CHO cells stably expressing hERG).
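Also: peak tail current of the secondary pulse compared with the same well before compound.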

human ether-à-go-go-related gene (hERG) potassium channel, sequence (Q12809 whole entry, looked up): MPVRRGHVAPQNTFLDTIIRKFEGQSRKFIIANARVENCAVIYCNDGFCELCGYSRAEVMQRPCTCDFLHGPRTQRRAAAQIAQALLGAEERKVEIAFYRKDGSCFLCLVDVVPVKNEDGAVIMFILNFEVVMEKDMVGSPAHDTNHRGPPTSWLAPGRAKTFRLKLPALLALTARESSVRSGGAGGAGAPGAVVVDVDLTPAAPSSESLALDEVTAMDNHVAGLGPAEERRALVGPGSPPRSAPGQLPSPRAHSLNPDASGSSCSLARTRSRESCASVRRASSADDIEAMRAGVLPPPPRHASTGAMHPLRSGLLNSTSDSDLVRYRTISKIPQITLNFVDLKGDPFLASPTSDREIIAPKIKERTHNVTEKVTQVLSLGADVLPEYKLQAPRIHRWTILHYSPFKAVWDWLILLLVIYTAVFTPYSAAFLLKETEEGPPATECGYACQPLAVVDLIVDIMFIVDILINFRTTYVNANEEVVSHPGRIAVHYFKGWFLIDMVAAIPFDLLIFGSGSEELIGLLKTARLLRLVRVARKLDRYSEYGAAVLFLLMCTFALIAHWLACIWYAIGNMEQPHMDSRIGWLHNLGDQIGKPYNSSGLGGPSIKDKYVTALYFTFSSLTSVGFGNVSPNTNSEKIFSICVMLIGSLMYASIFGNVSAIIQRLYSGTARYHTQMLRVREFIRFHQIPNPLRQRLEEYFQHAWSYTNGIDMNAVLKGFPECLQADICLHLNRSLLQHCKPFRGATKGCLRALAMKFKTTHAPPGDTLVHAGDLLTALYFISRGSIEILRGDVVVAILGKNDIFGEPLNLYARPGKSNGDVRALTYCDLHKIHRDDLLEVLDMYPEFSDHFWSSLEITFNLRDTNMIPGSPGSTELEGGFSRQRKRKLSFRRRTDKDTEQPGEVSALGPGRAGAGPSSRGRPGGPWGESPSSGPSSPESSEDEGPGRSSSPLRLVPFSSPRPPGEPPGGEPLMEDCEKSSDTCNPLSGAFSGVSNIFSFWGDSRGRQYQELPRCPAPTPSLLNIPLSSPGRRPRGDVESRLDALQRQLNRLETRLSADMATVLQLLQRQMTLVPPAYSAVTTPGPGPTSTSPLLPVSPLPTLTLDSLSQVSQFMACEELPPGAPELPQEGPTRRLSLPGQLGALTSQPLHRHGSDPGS

SMILES	hERG current change (%, negative = inhibition) at 10uM
CC[N+]12CCC(CC1)C(=C(c1ccccc1)c1ccccc1)C2.[Br-]	-73.6%
Cc1ccc(-n2nnc3c(=O)n(Cc4ccccn4)cnc32)cc1C	22.3%
FC(F)(F)c1ccc(Sc2n[nH]c(C(F)(F)F)n2)nc1	19.5%
O=C(O)CSc1cc(C(=O)c2cc(F)ccc2O)cn2c(=O)c3c(-c4ccccc4)csc3nc12	16.5%
Cc1ccc(CSCC(=O)N2CCN(c3ccc(F)cc3)CC2)cc1	-32.7%
Nc1nc(-c2ccco2)nn1S(=O)(=O)c1ccccc1	6.91%
COc1ccc(NC(=O)CC2C(=O)N(c3ccc(Cl)cc3)C(=S)N2CCc2ccccn2)cc1 (stereo not drawn)	-13.9%
N#Cc1ccccc1S(=O)c1ccccc1C(=O)Nc1ccccc1 (stereo not drawn)	2.42%
CCOC(=O)c1ccc(Oc2c(C)oc3c(CN4CCN(C)CC4)c(O)ccc3c2=O)cc1	-4.33%
CSc1ccc(S(=O)(=O)Nc2ccc(S(=O)(=O)Nc3ccc(C)cc3)cc2)cc1	-0.453%
CNCCCNC(=O)c1ccc(/C=N/O)nc1	16%
Cc1cccc(OCC(=O)N2CCN(Cc3cccnc3)CC2)c1.O=C(O)C(=O)O	-3.95%
CCN(CC)CCN(C(=O)c1cc(Cl)sc1Cl)c1nc2cc3c(cc2s1)OCO3.Cl	-24.7%
Cn1ncc2c(N3CCOCC3)ncnc21	7.07%
CCCn1c(C)cc(C(=O)COC(=O)c2c(C)nn(-c3ccccc3)c2C)c1C	-2.09%
CSCCC(NC(=O)COc1ccccc1)C(=O)N1CCN(c2ccccc2Cl)CC1 (stereo not drawn)	-40.2%
CCOC(=O)C1=C(C)NC(SC(C)=O)=NC1c1ccc(OC(C)=O)c(OC)c1 (stereo not drawn)	-9.09%
O=C(CNc1n[nH]c(=O)[nH]c1=O)N/N=C/C=C/c1ccccc1	5.51%
COc1ccc(C2C(C#N)=C(N)OC3=C2C(=O)CC(C)(C)C3)cc1Cn1nc(C)c([N+](=O)[O-])c1C (stereo not drawn)	-50.6%
CSc1ccc(NC(=O)NCCCN2CCC(Cc3ccccc3)CC2)cc1	-75.9%
CCOC(=O)c1ccc(N2CN(C3CCCCC3)CNC2=S)cc1	27.7%
C=CCC(C)(NCc1ccccc1)c1ccc(C)cc1.Cl (stereo not drawn)	-9.55%

SMILES	hERG current change (%, negative = inhibition) at 10uM
O=c1oc2ccccc2n1Cc1ccccc1	21.2%
COc1cc(C(=O)NNC(=O)c2cc(=O)[nH]c3ccccc23)cc(OC)c1OC	11.2%
CCn1c(SCC(=O)NCCc2ccc(Cl)cc2)nnc1-c1cccs1	-75.8%
CCn1c(Cc2ccccc2)nnc1SCC(=O)OC(C)C	0.117%
Clc1ccc(Oc2ccccc2)c2ncccc12	2.77%
Cc1cc(C(=O)CN2C(=O)C3CC=CCC3C2=O)c(C)n1-c1ccccc1 (stereo not drawn)	-2.05%
Nc1nonc1-c1noc(N2CCOCC2)n1	13.2%
O=C(CNS(=O)(=O)c1ccc(Br)s1)N1CCC(N2CCCCC2)CC1	-49.5%
COC(=O)Cn1cc(/C=C/[N+](=O)[O-])c2ccccc21	0.0278%
COc1cccc(CN2CCNCC2)c1.Cl	16%
O=C(Nc1cccc(S(=O)(=O)N2CCOCC2)c1)C1CCN(S(=O)(=O)c2ccccc2)CC1	-23.9%
C#CCOCCOCCOCCNc1nc(N2CCN(C(=O)CCCCCCCCCCNC(=O)[C@@H](CCSC)n3cc(CCO)nn3)CC2)nc(N2CCN(C(=O)CCCCCCCCCCNC(=O)[C@H](CCSC)n3cc(CCO)nn3)CC2)n1	7.74%
COc1cc2ccccc2cc1C(=O)Nc1ccc(Cl)cn1	35.1%
CS(=O)(=O)N1CCN(C(=O)NC2CCCCC2)CC1	14.3%
CNc1[nH]c(=O)[nH]c(=O)c1N=Nc1cc(Cl)ccc1Cl	20.6%
COc1cnc(-c2ccccc2)[nH]c1=O	9.27%
C=CCOc1c(CNn2cn[nH]c2=S)cccc1OC	10.4%
O=C(CN(C(=O)CNC(=O)c1ccco1)c1ccc2c(c1)OCCO2)NC1CCCCC1	27.1%
CC(C)C(=O)N/N=C/c1ccc(OCc2ccccc2)cc1	17.8%
CCCNc1c(NC(C)=O)c(=O)oc2ccccc12	6.92%
O=c1cc(CN2CCN(C/C=C/c3ccccc3)CC2)c2cc(O)ccc2o1	-77.5%
COc1ccc(Cc2nnc(SCC(=O)Nc3ccccc3)[nH]c2=O)cc1	2.14%

SMILES	hERG current change (%, negative = inhibition) at 10uM
CC(C)Oc1cccc(-c2cc(C(=O)NC(=S)N(C)c3ccccc3C(=O)O)c3ccccc3n2)c1	-13%
Cc1nnc(SCC(=O)Nc2nsc(-c3ccc(C(C)(C)C)cc3)n2)s1	-20.5%
Cc1ccn2c(CNCCn3cccn3)c(C(=O)N3CCCCCC3)nc2c1	-10.5%
O=C(CCN1C(=O)c2ccccc2C1=O)Nc1sc2c(c1C(=O)NCc1ccco1)CCCC2	-13.2%
COc1ccc(S(=O)(=O)NCc2ccc(C(=O)N3CCN(Cc4ccccc4)CC3)cc2)cc1	-12.9%
Cc1c(-c2cc[n+]([O-])cc2)oc2ccc(Br)cc2c1=O	-54.2%
O=C(CCC1CCCN(C(=O)CCN2CCCCC2=O)C1)NCc1ccccc1F (stereo not drawn)	-4.64%
O=C(CSc1ccc(-c2ccco2)nn1)Nc1ccc(F)cc1	-68.5%
COC(CNC(=O)c1cccc(-n2c(=S)[nH]c3cc(Cl)ccc3c2=O)c1)OC	17.2%
COCCCNC(=O)CN1C(=O)CSc2ncccc21	1.13%
Cc1oc(-c2ccccc2F)nc1CS(=O)(=O)CC(=O)NCCCN1CC(C)CC(C)C1 (stereo not drawn)	-17.8%
Cc1cccc(NC(=S)N(c2ccccc2)C(C)C)c1C	7.95%
CCC(C(=O)NCCc1ccc(S(N)(=O)=O)cc1)c1ccccc1 (stereo not drawn)	-1.24%
CCN(CC)C(=O)Cn1cc(C(=O)C(=O)NCCCN2CCCCC2)c2ccccc21	13.1%
Cc1ccc2c(c1)C1CN(C)CCC1N2C(=S)Nc1cccnc1 (stereo not drawn)	-14%
O=C(c1ccc2c(=O)n(Cc3ccccc3Cl)c(=S)[nH]c2c1)N1CCCC1	4.9%
O=C(Nc1ccncc1)c1ccc2c(c1)OCCO2	11.8%
Cn1cnc2cc(NC(=O)COc3ccccc3)ccc21	23.8%
CCn1c2ccccc2c2cc(CNCCCN3CCOCC3)ccc21.Cl	-4.87%
CC(=O)Nc1ccc(S(=O)(=O)Nc2nc3ccccc3nc2Nc2ccc3ccccc3c2)cc1	12.8%
Cc1ccc(C(C)C)c(OCC(=O)N/N=C/c2cccn2C)c1	3.2%
Cc1ccc(C(=O)OCC(=O)Nc2ccccc2Cl)c(O)c1	7.83%

SMILES	hERG current change (%, negative = inhibition) at 10uM
CCC1=C(OC(=O)N(CC)CC)N2C(=O)OC(=NCC3CC3)[C@]2(Cc2ccccc2)[C@H]2C1=CC[C@H]1C(=O)N(CC)C(=O)[C@H]12	-23.4%
O=C(NC1CC2CCCC(C1)N2)c1ccccc1 (stereo not drawn)	16.6%
Cc1cccc2sc(N(CCN(C)C)C(=O)c3cc(Cl)sc3Cl)nc12.Cl	-22.7%
O=C1/C(=C\c2ccccc2)CCc2c1[nH]c1ccccc21	9.57%
Cc1cc(C)n(C(=O)CNC(=O)Cc2ccccc2)n1	6.37%
COC(=O)c1cccc(COC(=O)c2ccc(N(C)C)cc2)c1	-3.98%
CCc1ccc(C2C3=C(CC(C)(C)CC3=O)OC3=C2C(=O)CC(C)(C)C3)cc1	1.57%
COC(=O)CCNC(=O)Cc1c(C)n(C(=O)c2ccc(Cl)cc2)c2ccc(OC)cc12	-17%
COc1ccc(CNC(=O)C(C)OC(=O)CN2C(=O)COc3ccccc32)cc1 (stereo not drawn)	-10%
O=C(NCCCN1CCCC(O)C1)c1cc(COc2ccc(F)cc2F)on1 (stereo not drawn)	-4.32%
O=c1[nH]n(Cc2ccccc2)c(=O)c2ccccc12	-1.48%
O=C(NCc1ccc(F)cc1)c1cc(S(=O)(=O)N2CCCCC2)c[nH]1	-3.62%
CCOC(=O)/C(C#N)=C1/C=Nc2ccccc2N1	-5.77%
O=C(/C=C/c1ccccc1)N/C(=C/c1ccccc1)C(=O)N1CCCCC1	-58.7%
CCn1c(=S)sc2c(=O)n(CC(=O)Nc3ccc(OC)cc3)c(C)nc21	5.68%
CNC(=O)CC1C(=O)N(C)C(=S)N1NC(=O)c1ccc(Cl)cc1 (stereo not drawn)	-2.06%
Cc1nn(-c2ccccc2)c(C)c1C(=O)OCC(=O)Nc1cccc(S(N)(=O)=O)c1	-4.99%
COc1ccccc1CN1CCN(C(=O)c2cccc3ccccc23)CC1	3.48%
O=[N+]([O-])c1ccc(N2CCCC2)c(F)c1Br	2.16%
CCCN(CCC)S(=O)(=O)c1ccc2c(c1)CCCN2C(C)=O	-47.2%
NC(=O)COC(=O)c1sc2cc(F)ccc2c1Cl	-0.0484%
